# Screen size: about 39,000 compounds; about 220 (0.56%) showed activity. The list shows a part of the results.
# Test system: Escherichia coli K-12 BW25113
# Assay: relative growth (OD600 normalised to plate interquartile mean) (fraction); higher = less growth inhibition, active = 0.2 or less
# Settings: 50 µM; LB; incubation time: overnight (16-24 h)
# 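Also: static incubation at 37 °C against the wild-type strain, values averaged over two biological replicates.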
row,SMILES,relative growth
1,CCCC[C@@H](C#N)c1ccc(F)cn1,inactive: 0.996
2,C[C@H]1CN([C@@H](C)CO)C(=O)Cc2cc(NC(=O)CCN3CCOCC3)ccc2O[C@H]1CN(C)S(C)(=O)=O,inactive: 1.01
3,Cc1ccc(S(=O)(=O)N(C)C[C@H]2Oc3ccc(NC(=O)Cn4cnnn4)cc3CC(=O)N([C@H](C)CO)C[C@@H]2C)cc1,inactive: 0.983
4,COc1ccc(NC(=O)Nc2ccc3c(c2)C(=O)N([C@H](C)CO)C[C@@H](C)[C@@H](CN(C)C(=O)Cc2ccccc2)OCCCC[C@H](C)O3)cc1,inactive: 1.04
5,CC(C)N1CCN(c2ccc(OCC3COC(Cn4cncn4)(c4ccc(Cl)cc4Cl)O3)cc2)CC1 (stereo not drawn),inactive: 1.03
6,C[C@H]1CN([C@@H](C)CO)C(=O)c2cccc(NS(=O)(=O)c3cn(C)cn3)c2O[C@H]1CN(C)Cc1ccccc1,inactive: 1.02
7,COc1ccc(CN(C)C[C@H]2OCCCC[C@H](C)Oc3ccc(NS(=O)(=O)c4ccc(OC)cc4)cc3C(=O)N([C@@H](C)CO)C[C@@H]2C)cc1,inactive: 1.02
8,C[C@H](CO)N1C[C@H](C)[C@H](CN(C)C(=O)Nc2cccc3ccccc23)Oc2c(NC(=O)Nc3ccc(C(F)(F)F)cc3)cccc2C1=O,inactive: 0.985
9,CCCC#Cc1ccc2c(c1)O[C@H](CN(C)S(=O)(=O)c1cccc(OC)c1)[C@@H](C)CN([C@@H](C)CO)S2(=O)=O,inactive: 1.05
10,COc1cccc(-c2cnc3c(c2)C(=O)N([C@H](C)CO)C[C@H](C)[C@H](CN(C)C(=O)Nc2cccc4ccccc24)O3)c1,inactive: 0.981
11,C[C@@H]1CCCCO[C@@H](CN(C)Cc2ccc(C(=O)O)cc2)[C@@H](C)CN([C@H](C)CO)C(=O)c2cc(NC(=O)c3ccccc3)ccc2O1,inactive: 0.894
12,Cc1noc(C)c1S(=O)(=O)N(C)C[C@@H]1Oc2ccc(NC(=O)Cc3ccccc3)cc2CC(=O)N([C@@H](C)CO)C[C@@H]1C,inactive: 1.01
13,COc1ccc(-c2cnc3c(c2)C(=O)N([C@@H](C)CO)C[C@H](C)[C@@H](CN(C)S(=O)(=O)c2ccc(OC)cc2)O3)cc1,inactive: 1.01
14,C[C@@H]1CN([C@H](C)CO)C(=O)c2cccc(NC(=O)C3CCOCC3)c2O[C@@H]1CN(C)Cc1ccccc1,inactive: 0.972
15,C[C@H]1CN([C@@H](C)CO)C(=O)c2cccc(N(C)C)c2O[C@@H]1CN(C)S(C)(=O)=O,inactive: 0.987
16,C[C@H]1CN([C@@H](C)CO)C(=O)c2cc(NC(=O)Nc3cccc4ccccc34)ccc2O[C@@H]1CN(C)Cc1ccc(C(=O)O)cc1,inactive: 0.981
17,C[C@@H]1CN([C@H](C)CO)S(=O)(=O)c2ccc(C#C[C@@H](C)O)cc2O[C@H]1CN(C)C(=O)Cc1ccccn1,inactive: 0.988
18,C[C@@H]1CN([C@H](C)CO)C(=O)c2cc(NC(=O)Cc3cn(C)c4ccccc34)ccc2O[C@@H]1CN(C)Cc1ccc(C(=O)Nc2ccccc2N)cc1,inactive: 0.996
19,CO[C@H]1CN(C)C(=O)c2ccc(NC(=O)C3CC3)cc2OC[C@@H](C)N(C(=O)CN2CCOCC2)C[C@H]1C,inactive: 1.04

row,SMILES,relative growth
1,O=C([O-])CCC(=O)OCC(NC(=O)C(Cl)Cl)C(O)c1ccc([N+](=O)[O-])cc1.[Na+] (stereo not drawn),active: 0.0517
2,C[C@@H]1CN([C@@H](C)CO)S(=O)(=O)c2ccc(C#CC(C)(C)O)cc2O[C@H]1CN(C)C(=O)CN(C)C,inactive: 0.994
3,C[C@@H]1CN([C@@H](C)CO)S(=O)(=O)c2ccc(C#Cc3ccc(F)cc3)cc2O[C@H]1CN(C)C(=O)CN(C)C,inactive: 0.976
4,Cc1noc(C)c1NC(=O)Nc1ccc2c(c1)C(=O)N([C@H](C)CO)C[C@@H](C)[C@H](CN(C)Cc1ccc(Oc3ccccc3)cc1)O2,inactive: 0.976
5,CCC1=NCCO1,inactive: 0.993
6,COc1ccc(NC(=O)Nc2ccc3c(c2)C(=O)N([C@@H](C)CO)C[C@@H](C)[C@H](CN(C)S(=O)(=O)c2cn(C)cn2)O3)cc1,inactive: 0.988
7,COc1ccc(S(=O)(=O)N(C)C[C@H]2Oc3ccc(NC(=O)CCCN(C)C)cc3CC(=O)N([C@@H](C)CO)C[C@@H]2C)cc1,inactive: 1.02
8,Cc1noc(C)c1S(=O)(=O)Nc1ccc2c(c1)C(=O)N([C@@H](C)CO)C[C@H](C)[C@@H](CN(C)C(=O)Nc1ccccc1)OCCCC[C@H](C)O2,inactive: 0.985
9,COc1ccc(NC(=O)Nc2ccc3c(c2)C(=O)N([C@H](C)CO)C[C@H](C)[C@H](CN(C)Cc2ccc4c(c2)OCO4)OCCCC[C@H](C)O3)cc1,inactive: 0.966
10,C[C@@H]1CN([C@@H](C)CO)C(=O)c2cccc(NC(=O)C3CCCCC3)c2O[C@H]1CN(C)Cc1ccc(Cl)c(Cl)c1,inactive: 0.963
11,C[C@H]1CN([C@@H](C)CO)C(=O)c2cc(C#CC3CC3)cnc2O[C@H]1CN(C)S(=O)(=O)c1cccc(F)c1,inactive: 0.997
12,C[C@@H]1CN([C@@H](C)CO)C(=O)Cc2cc(NC(=O)CCC(F)(F)F)ccc2O[C@@H]1CN(C)Cc1ccc(C(F)(F)F)cc1,inactive: 1.05
13,CN1CCN([C@H](CNC(=O)C(=O)NC[C@H]2CCCO2)c2ccc(N(C)C)cc2)CC1,inactive: 0.944
14,N[C@H](c1ccc(Cl)cc1)c1cccnc1,inactive: 1.02
15,C[C@H]1COC(=O)[C@@H](CC(=O)OC(C)(C)C)CC=CC[C@@H](CC(=O)N[C@@H](CO)Cc2ccccc2)C(=O)N1,inactive: 0.997
16,CO[C@@H]1CN(C)C(=O)c2cc(NC(=O)Nc3ccccc3F)ccc2OC[C@H](C)N(CCC(F)(F)F)C[C@@H]1C,inactive: 0.99
17,C[C@@H]1CN([C@@H](C)CO)C(=O)c2cc(N(C)C)ccc2O[C@@H](C)CCCCO[C@H]1CN(C)C(=O)Nc1cccc2ccccc12,inactive: 1
18,CC/C=C/C(=O)N(C[C@@H]1CCCO1)[C@@H]1CC(C(=O)NCCO)=C[C@H](Oc2c(I)cc(CO)cc2OC)[C@H]1O,inactive: 1
19,C[C@H]1CN([C@@H](C)CO)C(=O)c2cccc(NS(C)(=O)=O)c2O[C@@H]1CN(C)Cc1ccc(C(F)(F)F)cc1,inactive: 1.01

# Reference: the supplement of paper PMC9446081
